# Results taken from the supplement of paper PMC8728848.
# Some of the results follow.
# B1: SBD-G4S3-SBD (protein)
# chain: MASIPSSASVQLDSYNYDGSTFSGKIYVKNIAYSKKVTVVYADGSDNWNNNGNIIAASFSGPISGSNYEYWTFSASVKGIKEFYIKYEVSGKTYYDNNNSANYQVSTGGGGSGGGGSGGGGSEFASIPSSASVQLDSYNYDGSTFSGKIYVKNIAYSKKVTVVYADGSDNWNNNGNIIAASFSGPISGSNYEYWTFSASVKGIKEFYIKYEVSGKTYYDNNNSANYQVST
# Assays:
# Assay in all cases: glycan array binding signal (z-score within array); higher = stronger binding
# Details in all cases: glycan notation: IUPAC condensed, linker removed
# [1] = molecular target: Gal(b1-2)Gal
# In short: (§1)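 Glycan array binding is given as a within-array Z-score, which can be read as non-binding when negative. The arrays, 3228 of them, came from the Consortium for Functional Glycomics database and were retained only where the protein sequence was available. Z-scores were averaged across arrays of the same protein sequence at different concentrations or buffers and across linkers.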
# [2] = molecular target: Gal(b1-3)Gal
# In short: as §1
# [3] = molecular target: Gal(b1-3)Gal(b1-4)GlcNAc
# In short: as §1
# [4] = molecular target: Gal(b1-3)GalNAc
# In short: as §1
# [5] = molecular target: Gal(b1-3)GalNAc(a1-3)[Fuc(a1-2)]Gal(b1-4)Glc
# In short: as §1
# [6] = molecular target: Gal(b1-3)GalNAc(a1-3)[Fuc(a1-2)]Gal(b1-4)GlcNAc
# In short: as §1
# [7] = molecular target: Gal(b1-3)GalNAc(b1-3)Gal
# In short: as §1
# [8] = molecular target: Gal(b1-3)GalNAc(b1-3)Gal(a1-4)Gal(b1-4)Glc
# In short: as §1
# [9] = molecular target: Gal(b1-3)GalNAc(b1-4)Gal(b1-4)Glc
# In short: as §1
# [10] = molecular target: Gal(b1-3)GalNAc(b1-4)[Neu5Ac(a2-3)]Gal(b1-4)Glc
# In short: as §1
# [11] = molecular target: Gal(b1-3)GlcNAc
# In short: as §1
# [12] = molecular target: Gal(b1-3)GlcNAc(a1-3)Gal(b1-4)GlcNAc
# In short: as §1
# [13] = molecular target: Gal(b1-3)GlcNAc(a1-6)Gal(b1-4)GlcNAc
# In short: as §1
# [14] = molecular target: Gal(b1-3)GlcNAc(b1-2)Man
# In short: as §1
# [15] = molecular target: Gal(b1-3)GlcNAc(b1-2)Man(a1-3)[Gal(b1-3)GlcNAc(b1-2)Man(a1-6)]Man(b1-4)GlcNAc(b1-4)GlcNAc
# In short: as §1
# [16] = molecular target: Gal(b1-3)GlcNAc(b1-2)Man(a1-3)[Gal(b1-3)GlcNAc(b1-2)Man(a1-6)]Man(b1-4)GlcNAc(b1-4)[Fuc(a1-6)]GlcNAc
# In short: as §1
# [17] = molecular target: Gal(b1-3)GlcNAc(b1-2)Man(a1-3)[GlcNAc(b1-4)][Gal(b1-3)GlcNAc(b1-2)Man(a1-6)]Man(b1-4)GlcNAc(b1-4)GlcNAc
# In short: as §1
# [18] = molecular target: Gal(b1-3)GlcNAc(b1-2)[Gal(b1-3)GlcNAc(b1-6)]Man(a1-6)[Gal(b1-3)GlcNAc(b1-2)Man(a1-3)]Man(b1-4)GlcNAc(b1-4)GlcNAc
# In short: as §1
# [19] = molecular target: Gal(b1-3)GlcNAc(b1-3)Gal(b1-3)GlcNAc
# In short: as §1
# [20] = molecular target: Gal(b1-3)GlcNAc(b1-3)Gal(b1-4)Glc
# In short: as §1
# [21] = molecular target: Gal(b1-3)GlcNAc(b1-3)Gal(b1-4)GlcNAc
# In short: as §1
# [22] = molecular target: Gal(b1-3)GlcNAc(b1-3)Gal(b1-4)GlcNAc(b1-2)Man(a1-3)[Gal(b1-3)GlcNAc(b1-3)Gal(b1-4)GlcNAc(b1-2)Man(a1-6)]Man(b1-4)GlcNAc(b1-4)GlcNAc
# In short: as §1
# [23] = molecular target: Gal(b1-3)GlcNAc(b1-3)Gal(b1-4)GlcNAc(b1-2)[Gal(b1-3)GlcNAc(b1-3)Gal(b1-4)GlcNAc(b1-6)]Man(a1-6)[Gal(b1-3)GlcNAc(b1-3)Gal(b1-4)GlcNAc(b1-2)Man(a1-3)]Man(b1-4)GlcNAc(b1-4)[Fuc(a1-6)]GlcNAc
# In short: as §1
# [24] = molecular target: Gal(b1-3)GlcNAc(b1-3)Gal(b1-4)GlcNAc(b1-3)Gal(b1-4)GlcNAc(b1-2)[Gal(b1-3)GlcNAc(b1-3)Gal(b1-4)GlcNAc(b1-3)Gal(b1-4)GlcNAc(b1-6)]Man(a1-6)[Gal(b1-3)GlcNAc(b1-3)Gal(b1-4)GlcNAc(b1-3)Gal(b1-4)GlcNAc(b1-2)Man(a1-3)]Man(b1-4)GlcNAc(b1-4)[Fuc(a1-6)]GlcNAc
# In short: as §1
# [25] = molecular target: Gal(b1-3)GlcNAc(b1-3)Gal(b1-4)GlcNAc(b1-6)[Gal(b1-3)GlcNAc(b1-3)]Gal(b1-4)Glc
# In short: as §1
# [26] = molecular target: Gal(b1-3)GlcNAc(b1-3)Gal(b1-4)[Fuc(a1-3)]GlcNAc
# In short: as §1
# [27] = molecular target: Gal(b1-3)GlcNAc(b1-3)Gal(b1-4)[Fuc(a1-3)]GlcNAc(b1-6)[Gal(b1-3)GlcNAc(b1-3)]Gal(b1-4)Glc
# In short: as §1
# [28] = molecular target: Gal(b1-3)GlcNAc(b1-3)GalNAc
# In short: as §1
# [29] = molecular target: Gal(b1-3)GlcNAc(b1-6)Gal(b1-4)GlcNAc
# In short: as §1
# [30] = molecular target: Gal(b1-3)GlcNAc(b1-6)GalNAc
# In short: as §1
# [31] = molecular target: Gal(b1-3)GlcNAc(b1-6)[Gal(b1-3)]GalNAc
# In short: as §1
# [32] = molecular target: Gal(b1-3)GlcNAc6S
# In short: as §1
# [33] = molecular target: Gal(b1-3)[Fuc(a1-4)]GlcNAc
# In short: as §1
# [34] = molecular target: Gal(b1-3)[Fuc(a1-4)]GlcNAc(b1-2)Man
# In short: as §1
# [35] = molecular target: Gal(b1-3)[Fuc(a1-4)]GlcNAc(b1-2)Man(a1-3)[Gal(b1-3)[Fuc(a1-4)]GlcNAc(b1-2)Man(a1-6)]Man(b1-4)GlcNAc(b1-4)[Fuc(a1-6)]GlcNAc
# In short: as §1
# [36] = molecular target: Gal(b1-3)[Fuc(a1-4)]GlcNAc(b1-3)Gal(b1-3)[Fuc(a1-4)]GlcNAc
# In short: as §1
# [37] = molecular target: Gal(b1-3)[Fuc(a1-4)]GlcNAc(b1-3)Gal(b1-4)[Fuc(a1-3)]GlcNAc
# In short: as §1
# [38] = molecular target: Gal(b1-3)[Fuc(a1-4)]GlcNAc(b1-6)GalNAc
# In short: as §1
# [39] = molecular target: Gal(b1-3)[GlcNAc(b1-6)]GalNAc
# In short: as §1
# [40] = molecular target: Gal(b1-3)[Neu5Ac(a2-6)]GalNAc
# In short: as §1
# [41] = molecular target: Gal(b1-3)[Neu5Ac(a2-6)]GlcNAc(b1-4)Gal(b1-4)Glc
# In short: as §1
# [42] = molecular target: Gal(b1-3)[Neu5Ac(b2-6)]GalNAc
# In short: as §1
# [43] = molecular target: Gal(b1-4)Gal
# In short: as §1
# [44] = molecular target: Gal(b1-4)GalNAc(a1-3)[Fuc(a1-2)]Gal(b1-4)GlcNAc
# In short: as §1
# [45] = molecular target: Gal(b1-4)GalNAc(b1-3)[Fuc(a1-2)]Gal(b1-4)GlcNAc
# In short: as §1
binder,measurement,setting,value
B1,glycan array binding signal (z-score),[1],-0.281
same,glycan array binding signal (z-score),[2],-0.385
same,glycan array binding signal (z-score),[3],0.08
same,glycan array binding signal (z-score),[4],-0.33
same,glycan array binding signal (z-score),[5],-0.39
same,glycan array binding signal (z-score),[6],-0.391
same,glycan array binding signal (z-score),[7],-0.336
same,glycan array binding signal (z-score),[8],-0.324
same,glycan array binding signal (z-score),[9],-0.356
same,glycan array binding signal (z-score),[10],-0.263
same,glycan array binding signal (z-score),[11],0.511
same,glycan array binding signal (z-score),[12],-0.366
same,glycan array binding signal (z-score),[13],-0.239
same,glycan array binding signal (z-score),[14],-0.376
same,glycan array binding signal (z-score),[15],4.15
same,glycan array binding signal (z-score),[16],2.85
same,glycan array binding signal (z-score),[17],0.968
same,glycan array binding signal (z-score),[18],0.251
same,glycan array binding signal (z-score),[19],-0.246
same,glycan array binding signal (z-score),[20],-0.195
same,glycan array binding signal (z-score),[21],-0.361
same,glycan array binding signal (z-score),[22],-0.117
same,glycan array binding signal (z-score),[23],2.85
same,glycan array binding signal (z-score),[24],0.953
same,glycan array binding signal (z-score),[25],-0.42
same,glycan array binding signal (z-score),[26],-0.446
same,glycan array binding signal (z-score),[27],-0.428
same,glycan array binding signal (z-score),[28],2.5
same,glycan array binding signal (z-score),[29],-0.367
same,glycan array binding signal (z-score),[30],-0.069
same,glycan array binding signal (z-score),[31],-0.012
same,glycan array binding signal (z-score),[32],-0.404
same,glycan array binding signal (z-score),[33],-0.4
same,glycan array binding signal (z-score),[34],-0.157
same,glycan array binding signal (z-score),[35],0.242
same,glycan array binding signal (z-score),[36],-0.367
same,glycan array binding signal (z-score),[37],-0.396
same,glycan array binding signal (z-score),[38],4.38
same,glycan array binding signal (z-score),[39],-0.371
same,glycan array binding signal (z-score),[40],-0.416
same,glycan array binding signal (z-score),[41],-0.092
same,glycan array binding signal (z-score),[42],-0.425
same,glycan array binding signal (z-score),[43],3.02
same,glycan array binding signal (z-score),[44],0.23
same,glycan array binding signal (z-score),[45],-0.41
